Results taken from PubChem BioAssay AID686979 (National Center for Advancing Translational Sciences (NCATS), 2013).
The whole screen tested about 420,000 compounds, of which about 50,000 (12%) were called active. Inconclusive means that the source gave no clear call. Such entries were picked first, then a sample of the others. Calls come from the whole dose curve; as a rule, active = well fitted inhibition curve with a large enough effect; inconclusive = small, poorly fitted or top-dose-only effect; inactive = flat fitted curve, though single readings scatter. Potencies of inconclusive entries are left out as doubtful fits.

Assay: qHTS for Inhibitors of human tyrosyl-DNA phosphodiesterase 1 (TDP1): qHTS in cells in presence of CPT; note: nearly all actives have a fitted effect of over 55% in size
Conditions: chicken DT40 Tdp1-/-;hTDP1 cells + 20 nM CPT, ATP luminescence, 48 h; activity change, negative = growth inhibition: at 46.2 µM (top of the series) unless noted
In short: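 Chicken DT40 Tdp1-/- cells stably complemented with human TDP1 were seeded at 400 cells/well in medium containing 20 nM camptothecin, exposed to pin-transferred compounds, and grown at 37 °C for at least 48 hr. Viability was read as ATP luminescence.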
% is set by controls: 0 for no effect and ±100 for the full control effect; potency is the fitted concentration of half-maximal effect; tags give direction and shape of the fitted curve.

SMILES | Potency | activity change, negative = growth inhibition
Cc1cc(C(=O)N2CCN(CCc3ccccc3)CC2)no1 | inactive | –
C=C(C)COc1ccc(-c2nc(N)nc(C)c2-c2ccc(OC)cc2)c(O)c1 | inconclusive [inhibitor, partial curve] | –
Cc1cc(OCC(=O)Nc2ccncc2)ccc1[N+](=O)[O-] | inconclusive [inhibitor, single point] | –
COc1cccc(-c2noc(C3CC(=O)N(c4ccc(F)cc4)C3)n2)c1OC (centres undefined) | inactive | –
CCOc1ccc(N(CC(=O)N2CCCCCC2)S(=O)(=O)c2ccc(F)cc2)cc1 | inactive | –
COc1ccc(NS(=O)(=O)c2ccc3c(c2)N(C(C)=O)CCO3)cc1 | inactive | –
CSc1cccc(NC(=O)c2cccc(N3CCCS3(=O)=O)c2)c1 | inconclusive [inhibitor, single point] | –
COC(=O)C1CCN(C(=O)/C=C/c2ccc(OC)cc2)CC1 | inactive | –
C=C1C(=O)[C@]23C[C@H]1CC[C@H]2[C@]1(C)[C@@H](O)CC[C@@](C)(C(=O)O)[C@H]1C[C@@H]3O | active: 2.31 µM | –
C=CCn1c(N2CCCCCC2)nc2c1c(=O)n(C)c(=O)n2C | inconclusive [inhibitor, partial curve] | –
CCN(CC)S(=O)(=O)c1cccc(C(=O)NCC2CCCCC2)c1 | inconclusive [inhibitor, single point] | –
Fc1ccc(Br)cc1C1C=C(c2cccnc2)Nc2ncnn21 (centres undefined) | active: 16.4 µM | –
COC(=O)Nc1ccc2[nH]cc(CCNC(C)=O)c2c1 | – | inconclusive: -33.2% [inhibitor]
CCO[C@@H]1OC(C(=O)N2CCN(Cc3ccc4c(c3)OCO4)CC2)=C[C@H](c2coc3ccccc3c2=O)[C@H]1CCCO | active: 16.4 µM | –
Cc1ccccc1NC(=O)CSc1nc2ccc(NC(=O)c3cccs3)cc2s1 | inconclusive [inhibitor, single point] | –
O=C(c1ccco1)N1CCCC(N2CCN(c3cccc(C(F)(F)F)c3)CC2)C1 (centres undefined) | active: 16.4 µM | –
Cc1ccccc1NCc1nc2ccccc2n1C | inactive | –
COc1ccc(NC(=O)CSc2ccc3nc(-c4ccccc4)cn3n2)c(OC)c1 | active: 11.6 µM | –
O=S(=O)(c1ccc(=S)[nH]c1)N1CCCC1 | inconclusive [inhibitor, single point] | –
O=C(Cc1ccc(NC(=O)C2CCN(C(=O)C3CC3)CC2)cc1)Nc1ccc(C(=O)N2CCOCC2)cc1 | inactive | –
CC1CCC(=NNC(=O)c2ccccc2-n2cccc2)CC1 (centres undefined) | inconclusive [inhibitor, full curve, poor fit] | –
CNc1snc(C)c1C(=O)OCC(=O)NCc1ccccc1OC | inconclusive [inhibitor, single point] | –
COc1ccc(N(CC(=O)Nc2ccc3c(c2)OCCO3)S(=O)(=O)c2cccnc2)cc1 | inconclusive [inhibitor, partial curve, poor fit] | –
FC(F)(F)c1ccccc1Cc1c(-c2ccccc2)nc2ccc(Cl)cn12 | inconclusive [inhibitor, single point] | –
Clc1ccc(OCc2noc(-c3ccsc3)n2)c(Cl)c1 | inactive | –

SMILES | Potency | activity change, negative = growth inhibition
COc1ccccc1NC(=O)CN1CCN(c2ccc(Cl)cc2)CC1 | active: 20.6 µM | –
COc1ccc(/C=C\C(=O)NCC(=O)N/N=C/c2cccc(OC)c2O)cc1 | active: 5.8 µM | –
CC1(C(=O)NCc2ccc3c(c2)OCO3)CCN1C(=O)C1(c2ccc(Cl)cc2)CC1 (centres undefined) | inconclusive [inhibitor, single point] | –
O=S(=O)(NCc1ccccc1)[C@@H]1CC2C=CC1C2 (some centres undefined) | inactive | –
CC(C)(C)OC(=O)N[C@@H](/C=C/c1ccccc1)C(=O)OC(C)(C)C | inconclusive [inhibitor, single point] | –
Cc1ccc(C)c(OCCCCn2cnc3ccccc3c2=O)c1 | inconclusive [inhibitor, single point] | –
CN1CCS/C1=C/C=C1\SC(=S)N(CC(=O)O)C1=O | inactive | –
Cc1ccc(C)c(NC(=S)NCc2ccc3[nH]c4c(c3c2)CCCC4)c1 | inconclusive [inhibitor, single point] | –
CCNc1nc(NCC)n2c(SCC(=O)c3ccccc3Cl)nnc2n1 | inconclusive [inhibitor, single point] | –
CCOc1cc([N+](=O)[O-])cc(/C=C2/NC(=O)N(Cc3ccccc3F)C2=O)c1O | inconclusive [inhibitor, single point] | –
CC(C)C[C@@H](CN1CCC[C@@H]1CN1C(=S)NC[C@@H]1Cc1ccc(O)cc1)N1C[C@H](Cc2ccccc2)N(CCc2ccccc2)C1=S | inconclusive [inhibitor, single point] | –
N#Cc1cccc(NC(=O)N2CC[C@@]3(CCCN(C(=O)c4cnccn4)C3)C2)c1 | inconclusive [inhibitor, single point] | –
CCn1c(-c2cc(-c3ccccc3)sc2N)n[nH]c1=S | inconclusive [inhibitor, single point] | –
C=CCc1cccc(/C=N/NC(=O)C(=O)Nc2ccc(C)cc2)c1O | active: 3.66 µM | –
Cc1cc(C)cc(-n2c(C)cc(C(=S)N3CCOCC3)c2C)c1 | inconclusive [inhibitor, partial curve] | –
Cc1ccc(-n2nnnc2CNC(=O)c2cc(C(F)(F)F)cc(C(F)(F)F)c2)cc1C | inconclusive [inhibitor, single point] | –
CN(C)Cc1ccccc1C(O)(c1ccccc1)c1ccccc1 | active: 29.1 µM | –
O=C(CCSc1ccc(Cl)cc1)NC1CCCCC1 | inactive | –
C1=C(c2ccccc2)CCN(c2ncnc3nc[nH]c23)C1 | inconclusive [inhibitor, single point] | –
Clc1ccc(OCc2nn3c(-c4ccncc4)nnc3s2)cc1 | inconclusive [inhibitor, partial curve, poor fit] | –
COc1ccc(CN(C)C(=O)CNC(=O)Cc2cccc3ccccc23)c(OC)c1OC | inconclusive [inhibitor, single point] | –
CC1(c2ccccc2)CC2CC(c3ccccc3)N1O2 (centres undefined) | inconclusive [inhibitor, single point] | –
CCCCOC(=O)CC(CC(=O)OCCCC)(OC(C)=O)C(=O)OCCCC | inconclusive [inhibitor, single point] | –
O=C(Cn1nc(C(F)(F)F)c2c1CCCC2)Nc1ccc(Br)cc1 | inconclusive [inhibitor, single point] | –
CC(=O)Nc1ccc(S(=O)(=O)Nc2ccc(N3CCOCC3)cc2)cc1 | inactive | –

SMILES | Potency | activity change, negative = growth inhibition
COCCNC(=S)N1CCC2CC1c1c(Cl)cccc12 (centres undefined) | inactive | –
CC(C)(C)NC(=O)NC(=O)CSc1cccc(C(F)(F)F)c1 | inactive | –
CCCCCOc1ccc(C(=O)CCC(=O)N2CCCC2)cc1 | inactive | –
Cc1ccccc1CCN(C(=O)c1csnn1)C(C(=O)NC1CCCC1)c1ccco1 (centres undefined) | active: 23.1 µM | –
COc1ccccc1S(=O)(=O)Cc1ccc(C(=O)NCc2ccc(Cl)cc2)o1 | inconclusive [inhibitor, single point] | –
COc1ccc(N2CCN(CCC3Oc4cc([N+](=O)[O-])ccc4NC3=O)CC2)cc1 (centres undefined) | inconclusive [inhibitor, partial curve] | –
COc1ccc(-n2ncc3c(NC4CCCC4)ncnc32)cc1 | inconclusive [inhibitor, single point] | –
COC(=O)/C(C#N)=C/c1c(N2CCN(c3cccc(Cl)c3)CC2)nc2c(C)cccn2c1=O | inconclusive [inhibitor, partial curve] | –
COc1ccc(CNc2ncnc3sccc23)cc1 | active: 5.8 µM | –
COc1ccccc1CNC(=O)CCCC(=O)n1ncc2cc(C)ccc21 | inactive | –
COc1ccc(C(=O)C(=O)N2CCN(c3ccccc3F)CC2)cc1 | inconclusive [inhibitor, single point] | –
CSc1nc(N)c2c(n1)N(C)C=NS2(=O)=O | inactive | –
Cc1ccc(OCC(=O)Nc2ccncc2)cc1C | inconclusive [inhibitor, single point] | –
CCOC(=O)N1CCN(CC(=O)Nc2ccc([N+](=O)[O-])cc2C(=O)Nc2ccccc2F)CC1 | active: 20.6 µM | –
O=C(Nc1cccc2ccccc12)OCc1ccccc1 | inactive | –
COc1ccc(-c2cc(C)nc3nc(N)nn23)cc1 | inactive | –
Cc1cc(C)n2nc(SCC(=O)Nc3c(C)n(C)n(-c4ccccc4)c3=O)nc2n1 | inactive | –
Cc1cccnc1NC(=O)c1c(O)c2cccc3c2n(c1=O)CCC3 | inconclusive [inhibitor, single point] | –
C=CCNC(=O)C1CC1(c1ccccc1)c1ccccc1 (centres undefined) | inactive | –
Cc1cc(Oc2ccccc2)nc(SCC(=O)Nc2ccc(Cl)c(Cl)c2)n1 | inconclusive [inhibitor, single point] | –
O=C(Nc1ccccc1Cl)c1ccc(Cl)cc1Cl | inactive | –
CCCNc1ccc(-c2nc(-c3ccccn3)no2)cc1[N+](=O)[O-] | inactive | –
CC1(C)CC(=O)C2=C(C1)OC1=C(C(=O)CC(C)(C)C1)C2c1cc([N+](=O)[O-])cc([N+](=O)[O-])c1O | inconclusive [inhibitor, single point] | –
CN(CC(=O)NC(=O)NCc1ccccc1)CC(=O)Nc1ccc(Cl)c(C(F)(F)F)c1 | active: 18.4 µM | –
